Measurements published in patent US20260015418A1 (ABL BIO, published 2026).

How the values were obtained:
[1] = target: T1, human ROR1-Fc protein (Sino Biological, 13968-H02H1) (human, UniProt Q01973 fragment); experiment: DACE ELISA (ROR1-Fc coated, 4-1BB-His detection); 0 day in monkey serum at 37°C
T1 construct: Bought protein; also called human ROR1 protein (13968-H02H1, Fc tag)
Procedure: (§1) A 96-well microtiter plate (NUNC, 446612) was coated overnight at 4° C. with human ROR1-Fc protein (Sinobio, 13968-H02H1) at 100 ng/well in PBS. The plate was then incubated with 1% BSA buffer (1×PBS, 1% (v/v) BSA) at 200 μl/well at 37° C. for 2 hours to block non-specific binding. Thereafter, the blocking solution was discarded and fourfold dilutions of each bispecific antibody test material (starting from 100 nM) were added to the wells. The plate was incubated at 37° C. for 2 hours and then washed with PBS-T (1×PBS/0.05% (v/v) Tween-20). Subsequently, human 4-1BB-His protein (Sinobio, 10041-H08H) dissolved in 1% BSA buffer was added at 100 ng/well and incubated at 37° C. for 1 hour. After washing with PBS-T, the plate was incubated with anti-His HRP (Roche, Cat: 11965085001) at 37° C. for 1 hour. After washing, color development was performed with TMB (tetramethylbenzidine, Sigma, T0440) and the color development was stopped with 0.5M sulfuric acid (Samchun Chemicals, S1410), and the absorbance (OD) at 450-650 nm was read using a spectrophotometer. Four-parameter logistic curve analysis was performed using GraphPad software.

[2] = target: T1, human ROR1-Fc protein (Sino Biological, …); experiment: DACE ELISA (ROR1-Fc coated, 4-1BB-His detection); 14 days in human serum at 37°C
Procedure: as §1

[3] = target: T1, human ROR1-Fc protein (Sino Biological, …); experiment: DACE ELISA; 3 days in human serum, against day 0
Procedure: as §1

[4] = target: T1, human ROR1-Fc protein (Sino Biological, …); experiment: dual-antigen capture ELISA (DACE): plate coated with human ROR1-Fc, antibody titrated, then human 4-1BB-His and anti-His HRP, OD450
Procedure: Briefly, 96-well microtiter plates (NUNC, 446612) were coated overnight at 4° C. with human ROR1-Fc protein (Sinobio, 13968-H02H1) in PBS at 10 ng/well, then the plates were incubated with 1% BSA buffer (1×PBS, 1% (v/v) BSA) at 200 μl/well for 2 hours at 37° C. to prevent nonspecific binding. After blocking nonspecific binding, the wells were washed, and serial dilutions of the bispecific antibody test materials (starting at 100 nM) were added to each well. After incubation for 2 hours at 37° C., the plates were washed with PBS-T (1×PBS/0.05% (v/v) Tween-20). Then, human 4-1BB-His protein (Sinobio, 10041-H08H) dissolved in 1% (v/v) BSA was added to each well at 100 ng/well and incubated for 1 hour at 37° C. After washing the plates with PBS-T, anti-His HRP (Roche, Cat: 11965085001) was added and incubated for 1 hour at 37° C. After washing, color development was conducted TMB (tetramethylbenzidine, Sigma, T0440) and the reaction was stopped with 0.5M sulfuric acid (Samchun Chemicals, S1410), followed by reading absorbance (OD) at 450-650 nm in a spectrophotometer. Four-parameter logistic curve analysis was performed using GraphPad software.

[5] = target: T1, human ROR1-Fc protein (Sino Biological, …); experiment: DACE ELISA (ROR1-Fc coated, 4-1BB-His detection); 7 days in monkey serum at 37°C
Procedure: as §1

[6] = target: T1, human ROR1-Fc protein (Sino Biological, …); experiment: SPR Biacore T200, ROR1-Fc amine-coupled on CM5, antibody as analyte, bivalent analyte model (Ka1)
Procedure: The binding affinity of both BA6M11(WT)x1A10M12 and BA6M11 (NA)x1A10M12 clones, which are anti-ROR1/anti-4-1BB bispecific antibodies comprising BA6M11 clone, was assessed using surface plasmon resonance (SPR). The antigens used for this assessment were human ROR1 protein (13968-H02H1, Fc tag) from Sino Biological and human 4-1BB protein (9220-4B-100, his tag) from R&D Systems. The measurements were conducted on a Biacore T200 instrument (Cytiva).
The CM5 chip (Cytiva, BR100530) was coated with a 5 μg/mL human ROR1 protein dilution in Acetate 4.0 (Cytiva, BR100349) using the amine coupling method (Cytiva, BR100050) to achieve a surface density of about 80 RU. […] These diluted antibody samples were then flowed over the human ROR1 protein-immobilized CM5 chip for approximately 60 seconds to conjugate the sample to the antigen, followed by flowing HBS-EP buffer (1×) over the sample-antigen complex for 180 seconds to dissociate the sample from the antigen. […] Binding affinity was analyzed using the bivalent analyte model to derive the primary association rate constant (Ka1) and primary dissociation rate constant (Kd1). The equilibrium dissociation constant (KD) was calculated by dividing the primary dissociation rate constant by the primary association rate constant, and this value was used to represent the final binding affinity.

[7] = target: T1, human ROR1-Fc protein (Sino Biological, …); experiment: DACE ELISA (ROR1-Fc coated, 4-1BB-His detection); 3 days in monkey serum at 37°C
Procedure: as §1

[8] = target: T1, human ROR1-Fc protein (Sino Biological, …); experiment: DACE ELISA; 7 days in human serum, against day 0
Procedure: as §1

[9] = target: T1, human ROR1-Fc protein (Sino Biological, …); experiment: DACE ELISA; 3 days in monkey serum, against day 0
Procedure: as §1

[10] = target: T1, human ROR1-Fc protein (Sino Biological, …); experiment: DACE ELISA (ROR1-Fc coated, 4-1BB-His detection); 14 days in monkey serum at 37°C
Procedure: as §1

T1 sequence (Q01973 30-403 limits assumed): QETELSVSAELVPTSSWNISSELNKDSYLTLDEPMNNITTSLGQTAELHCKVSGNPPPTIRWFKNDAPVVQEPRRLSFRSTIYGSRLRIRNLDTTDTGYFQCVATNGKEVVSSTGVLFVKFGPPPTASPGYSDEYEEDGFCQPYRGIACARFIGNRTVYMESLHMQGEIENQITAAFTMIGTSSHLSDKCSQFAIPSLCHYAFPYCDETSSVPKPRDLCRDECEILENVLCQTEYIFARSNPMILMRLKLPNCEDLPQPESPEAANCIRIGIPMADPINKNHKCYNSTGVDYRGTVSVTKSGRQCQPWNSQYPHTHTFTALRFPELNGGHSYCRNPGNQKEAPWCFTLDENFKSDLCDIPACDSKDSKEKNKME

B1: BA6M11(NA)x1A10M12 anti-ROR1/anti-4-1BB bispecific antibody (bispecific antibody, human IgG1, lambda)
heavy: EVQLLESGGGLVQPGGSLRLSCAASGFTFSNYDMSWVRQAPGKGLEWVSAIYHSGSSKYYADSVKGRFTISRDNSKNTLYLQMNSLRAEDTAVYYCARGGSGAWDTGFDYWGQGTLVTVSSASTKGPSVFPLAPSSKSTSGGTAALGCLVKDYFPEPVTVSWNSGALTSGVHTFPAVLQSSGLYSLSSVVTVPSSSLGTQTYICNVNHKPSNTKVDKKV[human IgG1 Fc with changes not shown]GSGSGSGSGSGSGSGSGSQSVLTQPPSASGTPGQRVTISCSGSSSNIGNNYVTWYQQLPGTAPKLLIYADSHRPSGVPDRFSGSKSGTSASLAISGLRSEDEADYYCATWDYSLSGYVFGCGTKLTVLGGGGSGGGGSGGGGSGGGGSEVQLLESGGGLVQPGGSLRLSCAASGFTFSSYDMSWVRQAPGKCLEWVSWISYSGGSIYYADSVKGRFTISRDNSKNTLYLQMNSLRAEDTAVYYCARDAQRNSMREFDYWGQGTLVTVSS
light: QSVLTQPPSASGTPGQRVTISCSGSSSNIGSNDVSWYQQLPGTAPKLLIYYENNRPSGVPDRFSGSKSGTSASLAISGLRSEDEADYYCGAWDDSLSGYVFGGGTKLTVLGQPKAAPSVTLFPPSSEELQANKATLVCLISDFYPGAVTVAWKADSSPVKAGVETTTPSKQSNNKYAASSYLSLTPEQWKSHRSYSCQVTHEGSTVEKTVAPAECS
notes: As BA6M11(WT)x1A10M12 but with the N297A (NA) mutation in the Fc; also called BA6M11(NA) × 1A10M12
Question: Which results are given for B1?
Answer: EC50 [1]: 0.208 nM; EC50 [2]: 0.233 nM; EC50 Ratio (%) [3]: 96%; EC50 (read off the curve) [4]: ~0.4 nM; EC50 [5]: 0.257 nM; kon [6]: 229000 M⁻¹ s⁻¹; EC50 [7]: 0.238 nM; EC50 Ratio (%) [8]: 89%; EC50 Ratio (%) [9]: 87%; EC50 [10]: 0.273 nM
